Where “and” joins values, the source holds several entries; their conditions need not be identical. Identical values can stand only once. About 6,900 (2%) of roughly 340,000 compounds were called active. No stated cut-off is given here; in the data, active means inhibition above about 30%; inactive means below that, where a call was filed. This is a selection; strong and weak results do not stand in their true shares. Where no call is shown, the source filed none.
Molecular target: D(2) dopamine receptor (Homo sapiens) (UniProt P14416)
UniProt P14416, sequence (P14416 whole entry, looked up): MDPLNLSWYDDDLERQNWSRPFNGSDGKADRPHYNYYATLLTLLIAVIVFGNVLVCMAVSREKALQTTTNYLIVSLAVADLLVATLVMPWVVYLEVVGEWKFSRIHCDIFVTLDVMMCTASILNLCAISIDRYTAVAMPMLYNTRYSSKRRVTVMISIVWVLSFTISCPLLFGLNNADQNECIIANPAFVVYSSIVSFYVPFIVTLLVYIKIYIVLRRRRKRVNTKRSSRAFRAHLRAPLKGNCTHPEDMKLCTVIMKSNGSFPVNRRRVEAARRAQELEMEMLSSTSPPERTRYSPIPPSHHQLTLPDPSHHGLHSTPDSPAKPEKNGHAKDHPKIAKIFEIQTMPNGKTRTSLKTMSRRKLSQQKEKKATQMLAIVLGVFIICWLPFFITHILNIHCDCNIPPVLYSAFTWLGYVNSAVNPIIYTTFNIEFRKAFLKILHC
Assay: HTS Assay for Allosteric Antagonists of the Human D2 Dopamine Receptor: Primary Screen for Antagonists; further: 0% is about no effect
Conditions: HEK293 TREx D2 cells, calcium flux, dopamine EC80; at 10 µM; stronger effect = higher value
Outline: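 Read-out: kinetic calcium fluorescence (1 cycle/s) in inducible HEK293 T-REx D2 cells after an EC80 dopamine addition that followed 180 s compound preincubation. Loss of the dopamine response indicates antagonism.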

| Compound | inhibition |
| --- | --- |
| CCn1c2ccccc2c2nnc(SCC(=O)Nc3ccccc3OC)nc21 | 4.12% |
| CCOC(=O)c1ccc(NC(=O)C2CCN(S(=O)(=O)c3ccc4c(c3)CCCC(=O)N4)CC2)cc1 | 5.41% |
| Cc1ccccc1-c1nn2c(=O)cc(CN3CCN(C(=O)/C=C/c4ccccc4)CC3)nc2s1 | 18.7% |
| CCc1ccc(NC(=O)Cn2c(=O)n(CCC(=O)N3CCc4ccccc4C3)c(=O)c3ccccc32)cc1 | -5.46% |
| CN1C(=O)Cc2cc(S(=O)(=O)N3CCN(c4ccc(Cl)cc4)CC3)ccc21 | -10.3% |
| CCOc1ccc(OCC)c(NC(=O)C2CCN(S(=O)(=O)c3c(C)noc3/C=C/c3ccccc3F)CC2)c1 | 8.82% |
| O=C(c1ccc2c(c1)OCCO2)N(Cc1cccnc1)c1nc2c(Cl)cccc2s1 | -16.1% |
| O=C(COc1ccccc1)NCCc1csc(-c2ccc(Cl)cc2)n1 | -18.2% |
| COc1cccc(Cn2c(CNS(=O)(=O)c3ccc(F)c(Cl)c3)nc3cccnc32)c1 | -8.69% |
| CCc1nn2c(=O)cc(COc3ccc(/C=C(\C#N)C(=O)Nc4ccc(F)cc4)cc3OC)nc2s1 | -10.3% |
| CC(C)COc1ccc(C(=O)Nc2cc3nn(-c4ccccc4)nc3cc2Cl)cc1 | 1.33% |
| CN1CCc2c(sc(NC(=O)Cc3ccccc3)c2C#N)C1 | active: 69.5% |
| COc1ccc(CCn2c(=O)c3cccnc3n(CC(=O)Nc3ccc(C)c(F)c3)c2=O)cc1OC | 4.72% |
| C=Cc1ccc(Cn2c(C(=O)O)c(CNC3CCCCC3)c3ccc(C)cc32)cc1 | -8.35% |
| O=C(Nc1ccccc1)C1CC(=O)n2c(nc3ccccc32)N1 (stereo not given) | active: 33.6% |
| COc1ccc(-c2nnc(SCC(=O)Nc3cccc(C(F)(F)F)c3)nc2-c2ccc(OC)cc2)cc1 | -9.47% |
| Cc1cc(C)cc(NC(=O)N2CCC3(CC2)Oc2ccccc2C(=O)N3Cc2ccccc2F)c1 | -3.95% |
| CC1CCc2c(sc3nc(-c4cc5cc(Br)ccc5oc4=O)[nH]c(=O)c23)C1 (stereo not given) | -11.3% |
| O=C(CCS(=O)(=O)c1cccc2nonc12)Nc1c(F)cccc1F | -4.41% |
| COc1ccc(Br)c(C(=O)Nc2cc3c(cc2N2CCOCC2)n(C)c(=O)n3C)c1 | -10.9% |
| CCOc1ccc(NC(=O)c2c(NCc3cccnc3)sc3c2CCCC3)cc1 | -2.25% |
| CCOC(=O)c1ccc(CN(Cc2ccc(F)cc2)S(=O)(=O)c2ccc(F)c(C(=O)Nc3ccc(Cl)cc3F)c2)cc1 | -2.48% |
| O=S(=O)(Nc1ccc(Br)cc1F)c1ccc2nc(-c3ccccc3)[nH]c2c1 | 10.5% |
| COc1cccc(N2CCN(C(=O)c3cccc(-n4c(C)nc5cccnc54)c3)CC2)c1 | 8.67% |

| Compound | inhibition |
| --- | --- |
| COc1ccccc1NC(=O)N(Cc1nnc2n1CCCCC2)c1ccc(F)cc1 | 22.3% |
| COc1ccc(CCNC(=O)c2ccc(Nc3nc4ccccc4n4nnnc34)cc2)cc1OC | 15.9% |
| CC(=O)c1cccc(NC(=O)C(C)n2c(=O)cc(C)c3c(C)nn(-c4ccccc4)c32)c1 (stereo not given) | 4.17% |
| COc1ccc(NC(=O)Cn2nnc(C(=O)NCCc3ccccc3)c2N)cc1 | 20.3% |
| COc1ccc(OC)c(CNS(=O)(=O)c2ccc3c(c2)CCCN3C(C)=O)c1 | 10.8% |
| O=C(NCCc1ccccc1)c1ccc2c(c1)N(Cc1ccc(F)cc1)C(=O)c1ccccc1S2(=O)=O | 21.1% |
| CCCCOC(=O)/C=C/c1ccc(OC(=O)OC)c(OC(=O)OC)c1 | active: 73.5% |
| CC(C)c1ccc(NC(=O)c2cc3sc(Cl)cc3n2C)cc1 | 7.38% |
| Cc1cccc(C)c1OCC(O)CN1CCN(c2ccccn2)CC1 (stereo not given) | active: 77.5% |
| Cc1cccc(N(CC(O)Cn2c3ccccc3c3ccccc32)S(=O)(=O)c2ccc(F)cc2)c1 (stereo not given) | 5.5% |
| CN(CCCNC(=O)c1cc2c(Cl)nc3ccccc3c2s1)Cc1ccccc1 | -1.63% |
| Cc1c(Cl)cccc1NC(=O)CSc1ncc2c(n1)-c1ccccc1N(C)S2(=O)=O | 3.9% |
| COC(=O)c1c(NC(=O)c2cc3ccccc3c(=O)o2)sc2c1CCCC2 | -0.23% |
| CCOc1ccc(CCNC(=O)c2cnc3sc(N(CC)CC)nn3c2=O)cc1OCC | -8.7% |
| Cc1cccc(C)c1OCC(=O)Nc1ncn[nH]1 | -2.69% |
| CCN(CC)CCNC(=O)c1c(C)oc2ncnc(N3CCOCC3)c12 | -4.82% |
| Cc1cc(C)c(NC(=O)Cn2cc(S(=O)(=O)Cc3ccccc3F)c3ccccc32)c(C)c1 | 11.1% |
| Cc1ccc(-c2c(CN3CCN(c4cccc(C)c4)C(C)C3)csc2C)cc1 (stereo not given) | -6.85% |
| Cc1ccc2onc(CC(=O)N3CCN(c4ccc(F)cc4)CC3)c2c1 | 16.1% |
| Cc1sc2ncnc(NC3CCN(Cc4ccccc4)CC3)c2c1C | active: 68% |
| CC(C)CC(=O)N1c2nc(C(C)C)nn2C2(CCCCC2)[C@@H]2CCCC[C@@H]21 | -5.55% |
| Cc1ccccc1CS(=O)(=O)CCC(=O)NCCCN1CCN(c2ccccc2F)CC1 | active: 55.2% |
| O=C(CSc1nc2ccccc2o1)Nc1nc(-c2ccccc2)cs1 | active: 30% |
| O=C(COc1ccc(Br)cc1)NCCNC(=O)c1ccncc1 | active: 47.3% |

| Compound | inhibition |
| --- | --- |
| COc1ccc(-n2ncc3c(NC(C)(C)CO)ncnc32)cc1 | 8.99% |
| CN1CCN(C(c2cccc(Cl)c2)c2ccccc2Cl)CC1 (stereo not given) | active: 82.6% |
| CCOc1ccc(NC(=O)Cn2c3ncccc3c(=O)n2-c2ccc(CC)cc2)cc1 | 0.729% |
| CCN(CC)S(=O)(=O)c1ccc(NC(=O)NCc2noc3ccc(C)cc23)cc1 | 1.75% |
| Cc1ccc(CNC(=O)c2oc3c(c2C)-c2nn(Cc4ccc(Cl)cc4)cc2CC3)cc1 | 4.61% |
| Cc1cc(S(=O)(=O)C(CNC(=O)c2ccc(OC(C)C)cc2)c2cccs2)ccc1F (stereo not given) | 2.75% |
| Cc1nc2cccnc2n1C1CCN(S(C)(=O)=O)CC1 | 7.41% |
| NCc1nc2cccnc2n1Cc1ccccc1Cl | 19.2% |
| COc1ccccc1CNC(=O)CCc1c(C)nn(-c2ccc(N3CCOCC3)nn2)c1C | 7.16% |
| CCc1ccc(NC(=O)CCC(=O)Nc2nnc(C(C)C)s2)cc1 | active: 43.2% |
| COc1ccc(NC(=O)CSc2nc3c([nH]c4ccccc43)c(=O)n2-c2ccccc2)c(OC)c1 | 0.542% |
| O=C(NCc1ccco1)c1ccc2c(c1)N(Cc1ccccc1)C(=O)c1ccccc1S2(=O)=O | 13.9% |
| COc1ccc(NC(=O)N(CCC(C)C)C(C)c2cccs2)c(OC)c1 (stereo not given) | 16.1% |
| Cc1ccc(C2CCN(C(=O)c3cnn(-c4cccc(Cl)c4)c3C3CCN(C(=O)OC(C)(C)C)CC3)C2)cc1 (stereo not given) | 6.99% |
| Cc1cc(=O)[nH]c2nnc(SCC(=O)Nc3ccc(OC(F)(F)F)cc3)n12 | -25.1% |
| COc1ccc(OC)c(NC(=O)c2cc(-c3ccc(Cl)s3)nc3ccccc23)c1 | 0.693% |
| CC1CCCC(C)N1C(=O)c1ccc(S(=O)(=O)NCc2ccco2)cc1 (stereo not given) | active: 36.7% |
| O=[N+]([O-])c1ccc(CNc2ccc(Cl)cc2)s1 | active: 95.9% |
| CCOC(=O)CNc1nc(Oc2ccc(=O)n(C)n2)nc(N(CC)CC)n1 | -2.15% |
| COc1ccc(N2CCN(Cc3nc4c(c(=O)[nH]c(=O)n4C)n3Cc3ccc(Cl)cc3)CC2)cc1 | 16.3% |
| Cc1cccc(-c2nc(SCC(=O)N3CCc4ccccc43)c3c(=O)n(C)c(=O)n(C)c3n2)c1 | 4.51% |
| CCOc1ccc(C(=O)NCc2ccncc2)cc1OCC | active: 34.4% |
| COc1cccc2c1ncc1c(-c3ccc(C)cc3)nn(-c3cccc([N+](=O)[O-])c3)c12 | 0.187% |
| CCOc1ccc(-n2c(SCC(=O)N3CCc4ccccc43)nc3c([nH]c4ccccc43)c2=O)cc1 | 1.4% |

| Compound | inhibition |
| --- | --- |
| Cc1cc(C)cc(NC(=O)C(=O)NCC(c2ccc3c(c2)OCO3)N2CCN(C)CC2)c1 (stereo not given) | -18.7% |
| COc1ccc(NC(=O)Cn2c(=O)c(-c3cc(C)ccc3NC(C)=O)nc3ccccc32)c(OC)c1 | 18.1% |
| CCCN(Cc1cccs1)C(=O)Nc1ccc(OCC)cc1 | 9.36% |
| Cc1ccccc1Cn1ccc(NC(=O)c2nn(C)cc2[N+](=O)[O-])n1 | active: 31% |
| Cc1ccc(CNC(=O)c2nc(SCc3ccccc3F)ncc2Cl)cc1 | 22.7% |
| CCOC(=O)c1ccccc1NC(=O)CSc1nc2ccncc2[nH]1 | 13.2% |
| O=C(NCc1ccco1)c1ccc(Cn2c(SCc3ccc(F)cc3)nc3cccnc32)cc1 | 5.94% |
| Cc1ccc2nc(N3CCC(C(=O)N4CCN(c5cccc(C)c5C)CC4)CC3)[nH]c2c1 | -13.5% |
| CC1CCCN(C(=O)c2cc3c(=O)n(C)c4ccccc4c3s2)C1 (stereo not given) | -3.03% |
| COc1ccc(C2C(C(N)=O)=C(C)Nc3nc(SCc4ccccc4Cl)nn32)cc1OC (stereo not given) | -5.26% |
| CCOc1ccc(C(=O)NCc2nc3cccnc3n2Cc2ccc(F)cc2)cc1OCC | -1.83% |
| COc1ccc(-n2c3c(cc(-c4nc(-c5ccc(C)cc5)cs4)c2=O)C(=O)CC(C)(C)C3)cc1 | 8.22% |
| CC(C)C(=O)NCC(c1ccc2c(c1)OCO2)N1CCN(c2ccccc2F)CC1 (stereo not given) | 6.37% |
| COc1ccccc1C(=O)Nc1ccc2oc(-c3cccc(Cl)c3Cl)nc2c1 | -8.76% |
| CCOC(=O)c1ccc(N2C(=O)c3n[nH]c(C)c3C2c2cccc(Br)c2)cc1 (stereo not given) | -16.5% |
| COc1ccc(CNC(=O)Cn2nnc(-c3ccc(C(F)(F)F)cc3)n2)cc1 | -25% |
| NC(=O)c1ccc(NC(=O)CN2CCN(c3ccccc3)CC2)cc1 | active: 62.9% |
| COc1ccc(C(=O)c2cn(Cc3ccccc3F)c3cc4c(cc3c2=O)OCO4)cc1 | 2.23% |
| O=c1cc(-c2ccccc2)n2c(SCc3ccc(Cl)cc3)nnc2[nH]1 | 21% |
| CN(C)CCCN1c2ccccc2Sc2ccc(Cl)cc21 | active: 76.5% and active: 85.7% |
| Cc1cc(C)cc(OC(=O)c2cc(-c3ccc4c(c3)OCCO4)on2)c1 | -2.54% |
| Nc1nc(NCCc2ccccc2)nc(NCc2ccccc2)c1[N+](=O)[O-] | active: 45.2% |
| COc1ccc(/C=C/c2nc(-c3ccccc3O)n(-c3ccccc3)n2)cc1OC | -5.3% |

Source: PubChem BioAssay AID485344 (National Center for Advancing Translational Sciences (NCATS), 2010)
